# Measured values from PubChem BioAssay (Tox21).
# Values joined by “and” are separate entries in the source; they are usually repeats but may differ in a detail not shown here. Equal values may be shown once. Some compounds were tested as several samples or in several runs, with calls that do not always agree. Active and inactive are the calls of the source. Unless noted, calls come from the whole dose curve; as a rule, active = well fitted curve in the direction sought with a large enough effect in the repeat runs; inconclusive = weak or mixed curves; inactive = no such curve, though single readings can be large; an effect the other way counts as inactive or inconclusive.
# Tests used:
# [1] = qHTS assay for identifying genotoxic compounds that show differential cytotoxicity against isogenic chicken DT40 cell lines with known DNA damage response pathways - Rev3 mutant cell line (AID 743014); details: chicken DT40 Rev3-/- viability, CellTiter-Glo, 40 h; activity, negative = cytotoxicity: at 68.4 µM (top of the series); note: potency is the fitted concentration of half-maximal effect; nearly all actives have a fitted effect of over 55% in size
# [2] = qHTS assay for identifying genotoxic compounds that show differential cytotoxicity against isogenic chicken DT40 cell lines with known DNA damage response pathways - Rad54/Ku70 mutant cell line (AID 743015); details: DT40 Rad54/Ku70 mutant viability, CellTiter-Glo, 40 h; activity change, negative = cytotoxicity: at 66.8 µM (top of the series); note: nearly all actives have a fitted effect of over 60% in size; note: potency is the fitted concentration of half-maximal effect; for activity change, negative = cytotoxicity: % is set by controls: 0 for no effect and ±100 for the full control effect
# [3] = qHTS assay to identify small molecule antagonists of the thyroid receptor (TR) signaling pathway - cell viability counter screen (AID 743064); details: GH3.TRE-Luc viability, CellTiter-Fluor, 24 h; activity change, negative = cytotoxic: at 70.3 µM (top of the series) unless noted; note: nearly all actives have a fitted effect of over 50% in size; note: potency is the fitted concentration of half-maximal effect
# Procedure, shortened: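 Rat GH3 pituitary tumor cells stably expressing two TR response elements driving luciferase were plated, rested 4 h, then dosed with library compounds and T3 (1 nM final). After 23.5 h at 37 °C, CellTiter-Fluor was added for 30 min and fluorescence recorded.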
# [4] = qHTS assay to identify small molecule antagonists of the estrogen receptor alpha (ER-alpha) signaling pathway - cell viability counter screen (AID 743074; calls by dose curve; note: nearly all actives have a fitted effect of over 45% in size; note: potency is the fitted concentration of half-maximal effect)
# [5] = tested on: thyroid hormone receptor (rat, GH3 cells); test: qHTS assay to identify small molecule agonists of the thyroid receptor (TR) signaling pathway (AID 743066; calls by dose curve; note: potency is the fitted concentration of half-maximal effect; for activation: % is set by controls: 0 for no effect and ±100 for the full control effect); details: GH3.TRE-Luc cells, TR agonist luciferase, 24 h; activation: at 83.9 µM (top of the series) unless noted
# [6] = biological target: Estrogen receptor (Homo sapiens) (UniProt P03372); test: qHTS assay to identify small molecule agonists of the estrogen receptor alpha (ER-alpha) signaling pathway using the BG1 cell line (AID 743079); details: BG1Luc4E2 cells, ERE-luciferase agonist, 22 h; activation: at 70.3 µM (top of the series) unless noted; note: nearly all actives have a fitted effect of over 20% in size; note: potency is the fitted concentration of half-maximal effect; for activation: % is set by controls: 0 for no effect and ±100 for the full control effect
# [7] = qHTS assay to identify small molecule antagonists of the estrogen receptor alpha (ER-alpha) signaling pathway using the BG1 cell line - cell viability counter screen (AID 743081); details: BG1Luc4E2 viability, CellTiter-Fluor, 22 h; activity change, negative = cytotoxicity: at 70.3 µM (top of the series) unless noted;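 note: compound given together with 17beta-estradiol as the ER stimulus; nearly all actives have a fitted effect of over 45% in size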; note: potency is the fitted concentration of half-maximal effect
# [8] = qHTS assay to identify small molecule antagonists of the androgen receptor (AR) signaling pathway - cell viability counter screen (AID 743033; note: nearly all actives have a fitted effect of over 45% in size; note: potency is the fitted concentration of half-maximal effect; for activity change, negative = cytotoxicity: % is set by controls: 0 for no effect and ±100 for the full control effect); details: AR-bla HEK293 viability, CellTiter-Glo luminescence, 16 h; activity change, negative = cytotoxicity: at 58.5 µM (top of the series) unless noted
# [9] = qHTS assay to identify small molecule antagonists of the thyroid receptor (TR) signaling pathway (AID 743065); note: nearly all actives have a fitted effect of over 55% in size; note: potency is the fitted concentration of half-maximal effect
# Procedure, shortened: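 Antagonism measured as loss of luciferase signal in GH3 cells stably carrying a TRE-luciferase reporter, co-treated with compound and T3 (1 nM final) for 23.5 h at 37 C. Viability was read in the same well by CellTiter-Fluor.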
# [10] = biological target: Estrogen receptor (Homo sapiens) (UniProt P03372); test: qHTS assay to identify small molecule antagonists of the estrogen receptor alpha (ER-alpha) signaling pathway (AID 743069; active = well fitted curve in the direction sought with a large enough effect in the signal ratio in the repeat runs, not every such curve was filed as active; inconclusive = weak or mixed curves, or effect the other way; inactive = no such curve, though single readings can be large or run the other way; the % refers to the signal ratio; note: potency is the fitted concentration of half-maximal effect); details: HEK293 ER-alpha-UAS-bla, beta-lactamase ratio, antagonist mode; activity, negative = inhibition: at 69.4 µM (top of the series) unless noted
# Procedure, shortened: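 Fluorescence intensity from a beta-lactamase FRET substrate served as the read-out. Cells: HEK293 with stably integrated ER-alpha-UAS-bla reporter. Agonist 17beta-estradiol was co-added with compounds; incubation 18 hr at 37C, substrate 2 hr at room temperature.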
# [11] = biological target: Estrogen receptor (Homo sapiens) (UniProt P03372); test: qHTS assay to identify small molecule agonists of the estrogen receptor alpha (ER-alpha) signaling pathway (AID 743075; calls by dose curve; note: potency is the fitted concentration of half-maximal effect)
# [12] = biological target: Androgen receptor (Homo sapiens) (UniProt P10275); test: qHTS assay to identify small molecule antagonists of the androgen receptor (AR) signaling pathway (AID 743035; active = well fitted inhibition curve with a large enough effect in the signal ratio in the repeat runs, not every such curve was filed as active; inconclusive = weak or mixed curves, or effect the other way; inactive = no such curve, though single readings can be large or run the other way; the % refers to the signal ratio; note: potency is the fitted concentration of half-maximal effect); details: HEK293 AR-UAS-bla, R1881-stimulated, beta-lactamase FRET, 16 h; activity change, negative = inhibition: at 58.5 µM (top of the series) unless noted
# Procedure, shortened: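 AR-bla HEK293 reporter cells; 4 h settle at 37C/5% CO2; compound + R1881 agonist, 16 h at 37C; LiveBLAzer B/G FRET substrate 2 h RT; fluorescence intensity read. qHTS format.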
# [13] = biological target: Androgen receptor (Homo sapiens) (UniProt P10275); test: qHTS assay to identify small molecule agonists of the androgen receptor (AR) signaling pathway using the MDA cell line (AID 743040; note: nearly all actives have a fitted effect of over 20% in size; note: potency is the fitted concentration of half-maximal effect); details: MDA-kb2 AR-luc cells, MMTV luciferase, 16 h; activity change: at 70.3 µM (top of the series), stronger effect = higher value
# Procedure, shortened: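 Stable MMTV-luciferase reporter in MDA-kb2 cells; note the promoter carries GR as well as AR response elements. 16 h compound treatment, 37C, 0% CO2; ONE-Glo luminescence endpoint.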
# [14] = qHTS assay to identify small molecule antagonists of the estrogen receptor alpha (ER-alpha) signaling pathway using the BG1 cell line (AID 743080; calls by dose curve;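 note: BG1 cells stimulated with 17beta-estradiol alongside compound; % is set by controls: 0 for no effect and ±100 for the full control effect; nearly all actives have a fitted effect of over 25% in size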); details: BG1Luc4E2 ERE-luciferase antagonist mode, luminescence; activity change, negative = inhibition: at 70.3 µM (top of the series) unless noted
# Procedure, shortened: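 Seeding, 24 h rest, compound transfer from DMSO, 17beta-estradiol addition, 21.5 h incubation, CellTiter-Fluor (30 min, 37 C), then ONE-Glo (30 min, room temperature): this sequence was run on BG1-Luc-4E2 reporter cells.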
# [15] = qHTS assay to identify small molecule antagonists of the androgen receptor (AR) signaling pathway using the MDA cell line - cell viability counter screen (AID 743041; note: potency is the fitted concentration of half-maximal effect; nearly all actives have a fitted effect of over 45% in size); details: MDA-kb2 viability, CellTiter-Fluor, 16 h, cells co-treated with R1881 androgen agonist; viability change, negative = cytotoxic: at 70.3 µM (top of the series) unless noted
# Procedure, shortened: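 Using the breast carcinoma line MDA-kb2 AR-luc, test chemicals were co-incubated with R1881 for 16 h; CellTiter-Fluor reagent, added at 15.5 h, provided a fluorescence measure of live cells.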
# [16] = biological target: Aromatase (Homo sapiens) (UniProt P11511); test: qHTS assay to identify aromatase inhibitors (AID 743083); details: MCF-7 aro ERE, testosterone-driven ERE luciferase, 24 h; activity, negative = inhibition: at 70.3 µM (top of the series); note: potency is the fitted concentration of half-maximal effect; nearly all actives have a fitted effect of over 55% in size
# [17] = biological target: Androgen receptor (Homo sapiens) (UniProt P10275); test: qHTS assay to identify small molecule agonists of the androgen receptor (AR) signaling pathway (AID 743036; active = well fitted activation curve with a large enough effect in the signal ratio in the repeat runs, with a control signal flat, not every such curve was filed as active; inconclusive = weak or mixed curves, or effect the other way; inactive = no such curve, though single readings can be large or run the other way; the % refers to the signal ratio; note: potency is the fitted concentration of half-maximal effect); details: HEK293 AR-UAS-bla GripTite, beta-lactamase FRET ratio, 16 h; activation: at 62.4 µM (top of the series) unless noted
# Procedure, shortened: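 Quantitative HTS of the Tox21 10K library in HEK293 cells bearing a stably integrated UAS-controlled beta-lactamase reporter. Compound exposure lasted 16 h at 37C. Reporter activity was detected by FRET substrate fluorescence after 2 h at room temperature.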
# [18] = biological target: Androgen receptor (Homo sapiens) (UniProt P10275); test: qHTS assay to identify small molecule antagonists of the androgen receptor (AR) signaling pathway using the MDA cell line (AID 743042; note: % is set by controls: 0 for no effect and ±100 for the full control effect; nearly all actives have a fitted effect of over 55% in size)
# Procedure, shortened: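 Antagonist mode: compounds plus R1881 agonist added to MDA-kb2 AR-luc cells, incubated 16 h at 37C. Luciferase reporter luminescence quantified, with multiplexed CellTiter-Fluor readout for cell viability.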
# Tags give direction and shape of the fitted curve or compound fluorescence and quenching.
# Chain of UniProt P03372 (P03372 whole entry, looked up): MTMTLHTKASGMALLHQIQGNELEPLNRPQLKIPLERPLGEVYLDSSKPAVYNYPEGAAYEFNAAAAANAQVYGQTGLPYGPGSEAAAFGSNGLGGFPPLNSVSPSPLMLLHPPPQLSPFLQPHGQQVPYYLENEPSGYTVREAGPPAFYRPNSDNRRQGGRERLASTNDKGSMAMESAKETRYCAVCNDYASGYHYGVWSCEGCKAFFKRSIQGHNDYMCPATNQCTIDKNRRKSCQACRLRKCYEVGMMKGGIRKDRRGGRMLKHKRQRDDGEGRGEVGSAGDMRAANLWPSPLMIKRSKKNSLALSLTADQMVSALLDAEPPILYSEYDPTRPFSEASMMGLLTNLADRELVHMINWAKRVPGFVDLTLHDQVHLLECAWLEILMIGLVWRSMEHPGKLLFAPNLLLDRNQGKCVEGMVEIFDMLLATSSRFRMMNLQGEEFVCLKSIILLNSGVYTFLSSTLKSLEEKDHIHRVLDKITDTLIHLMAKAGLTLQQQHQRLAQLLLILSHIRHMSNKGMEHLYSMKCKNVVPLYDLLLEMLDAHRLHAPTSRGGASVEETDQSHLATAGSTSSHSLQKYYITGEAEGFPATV
# Chain of UniProt P10275 (P10275 whole entry, looked up): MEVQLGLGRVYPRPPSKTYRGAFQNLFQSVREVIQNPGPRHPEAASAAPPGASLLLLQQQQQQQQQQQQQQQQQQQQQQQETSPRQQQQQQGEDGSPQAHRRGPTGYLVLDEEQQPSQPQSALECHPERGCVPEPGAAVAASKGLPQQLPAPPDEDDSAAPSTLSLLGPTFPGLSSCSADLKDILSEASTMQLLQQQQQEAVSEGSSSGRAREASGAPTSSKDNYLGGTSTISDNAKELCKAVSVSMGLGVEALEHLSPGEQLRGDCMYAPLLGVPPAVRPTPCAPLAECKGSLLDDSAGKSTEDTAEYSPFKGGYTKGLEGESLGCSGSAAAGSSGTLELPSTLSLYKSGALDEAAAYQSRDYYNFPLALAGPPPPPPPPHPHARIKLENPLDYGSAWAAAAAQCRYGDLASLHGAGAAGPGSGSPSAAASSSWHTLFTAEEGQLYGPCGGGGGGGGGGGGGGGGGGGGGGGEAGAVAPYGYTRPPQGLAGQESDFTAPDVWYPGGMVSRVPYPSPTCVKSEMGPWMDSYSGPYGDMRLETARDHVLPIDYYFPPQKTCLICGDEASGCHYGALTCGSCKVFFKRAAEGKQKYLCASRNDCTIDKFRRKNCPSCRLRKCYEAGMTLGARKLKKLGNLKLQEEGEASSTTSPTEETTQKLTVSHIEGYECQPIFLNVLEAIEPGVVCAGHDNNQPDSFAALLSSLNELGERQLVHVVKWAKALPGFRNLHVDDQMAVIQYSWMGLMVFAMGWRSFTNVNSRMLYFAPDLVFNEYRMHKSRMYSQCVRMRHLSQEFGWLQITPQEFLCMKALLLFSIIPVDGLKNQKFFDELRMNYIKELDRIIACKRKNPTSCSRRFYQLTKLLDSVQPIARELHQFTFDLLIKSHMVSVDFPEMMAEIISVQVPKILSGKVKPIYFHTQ
# Chain of UniProt P11511 (P11511 whole entry, looked up): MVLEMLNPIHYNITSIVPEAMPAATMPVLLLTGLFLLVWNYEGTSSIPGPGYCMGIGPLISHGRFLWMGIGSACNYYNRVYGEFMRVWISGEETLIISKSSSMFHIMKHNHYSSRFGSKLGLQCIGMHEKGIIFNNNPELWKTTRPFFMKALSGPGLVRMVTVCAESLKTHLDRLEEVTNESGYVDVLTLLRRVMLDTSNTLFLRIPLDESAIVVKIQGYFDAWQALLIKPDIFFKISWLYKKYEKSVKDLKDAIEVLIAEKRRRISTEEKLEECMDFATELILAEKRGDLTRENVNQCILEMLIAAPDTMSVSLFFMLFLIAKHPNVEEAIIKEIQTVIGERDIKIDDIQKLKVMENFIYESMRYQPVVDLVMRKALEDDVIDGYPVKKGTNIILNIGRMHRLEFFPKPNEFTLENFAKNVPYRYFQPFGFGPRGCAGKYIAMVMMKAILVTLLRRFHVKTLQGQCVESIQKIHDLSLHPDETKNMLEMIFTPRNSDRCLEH
structure (smiles),measurement,setting,value
C1CCC(SSC2CCCCC2)CC1,Potency,[1],"inconclusive: 27.3 µM [cytotoxic, full curve, poor fit]"
same,Potency,[2],inactive
same,Potency,[3],"inconclusive: 13.7 µM [rising, single point]"
same,Potency,[4],"inconclusive: 12.3 µM [rising, partial curve, poor fit]"
CC[C@@H]1C[C@H](N(Cc2cc(C(F)(F)F)cc(C(F)(F)F)c2)C(C)=O)c2cc(C(F)(F)F)ccc2N1C(=O)OC(C)C,Potency,[1],"inconclusive: 5.45 µM [cytotoxic, full curve, poor fit]"
same,Potency,[2],"inconclusive: 6.11 µM [cytotoxic, full curve, poor fit]"
same,Potency,[3],"inconclusive: 3.06 µM [rising, full curve]"
same,Potency,[5],inactive
same,Potency,[6],inactive
same,Potency,[7],inconclusive: 6.86 µM
O=C(c1ccccc1)c1ccc(O)cc1O,Potency,[1],"inconclusive: 69.9 µM [cytotoxic, single point]"
same,Potency,[2],"inconclusive: 69.9 µM [cytotoxic, single point] and inconclusive: 68.6 µM [cytotoxic]"
same,Potency,[8],"inconclusive: 62.8 µM [cytotoxic, single point] and inactive"
same,Potency,[9],inactive
same,Potency,[5],active: 30.6 µM
same,Potency,[10],"inconclusive: 43.6 µM [fluorescent, partial curve]"
same,Potency,[4],"inconclusive: 56 µM [cytotoxic] and inconclusive: 6.16 µM [cytotoxic, full curve]"
same,Potency,[11],active: 19.9 µM [inconclusive] and active: 38.9 µM [inconclusive]
Cc1cccc(Nc2cc(Cl)nc(SCC(=O)O)n2)c1C,Potency,[1],"inconclusive: 26.6 µM [rising, partial curve, poor fit]"
same,Potency,[2],inactive
same,Potency,[12],"inconclusive: 24.5 µM [rising, partial curve, poor fit]"
same,"activity change, negative = inhibition",[12],inconclusive: -10.7%
same,Potency,[13],inactive
same,Potency,[10],"inconclusive: 14.2 µM [fluorescent, partial curve]"
same,Potency,[4],inactive
C[n+]1ccn(Cc2ccccc2)c1,Potency,[1],inconclusive: 24.2 µM [cytotoxic]
same,Potency,[2],"inconclusive: 27.2 µM [cytotoxic, single point]"
same,Potency,[3],inactive
same,Potency,[4],"inconclusive: 54.7 µM [cytotoxic, single point]"
same,Potency,[6],"inconclusive: 60.9 µM [inhibitor, partial curve, poor fit]"
same,"activity change, negative = inhibition",[14],inconclusive: -0.58%
same,Potency,[7],inactive
CC/C(=C(/CC)c1ccc(O)cc1)c1ccc(O)cc1,Potency,[1],"inconclusive: 24.1 µM [cytotoxic, full curve]"
same,Potency,[2],"active: 26.6 µM and inconclusive: 21.5 µM [cytotoxic, full curve] and active: 27.3 µM"
same,Potency,[8],"inconclusive: 54.9 µM [cytotoxic, partial curve]"
same,Potency,[15],"inconclusive: 76.3 µM [cytotoxic, single point]"
same,Potency,[3],"inconclusive: 15 µM [cytotoxic, full curve] and active: 54 µM and active: 54.5 µM"
same,Potency,[4],"inconclusive: 54.5 µM [cytotoxic, single point]"
same,Potency,[7],"inconclusive: 68 µM [cytotoxic, partial curve, poor fit]"
C[Si](Cl)(c1ccccc1)c1ccccc1,Potency,[1],"inconclusive: 75 µM [cytotoxic, partial curve, poor fit]"
same,Potency,[2],"inconclusive: 66.8 µM [cytotoxic, single point]"
same,"activity change, negative = cytotoxic",[3],inconclusive: -24%
same,Potency,[10],inactive
same,Potency,[16],"inconclusive: 66.8 µM [inhibitor, single point]"
C[C@@H]1C[C@H]2[C@@H]3CCC4=CC(=O)C=C[C@]4(C)[C@@]3(Cl)[C@@H](O)C[C@]2(C)[C@@]1(OC(=O)c1ccco1)C(=O)CCl,Potency,[1],"inconclusive: 14.3 µM [cytotoxic, single point]"
same,Potency,[2],"inconclusive: 14.3 µM [cytotoxic, single point]"
same,Potency,[12],"inconclusive: 11.5 µM [rising, partial curve, poor fit]"
same,Potency,[17],"inconclusive: 0.256 µM [activator, full curve, poor fit]"
same,Potency,[13],active: 0.0009 µM
same,Potency,[18],inactive
same,"activity change, negative = cytotoxic",[3],inconclusive: -31.3% [cytotoxic] [at 32.5 µM]
same,Potency,[9],"inconclusive: 12.7 µM [inhibitor, single point]"
